Source: US20180305431A1 (Novo Nordisk, published 2018)

Legend:
[1] = molecular target: T1, membrane-associated human IGF-1R (plasma membranes of BHK cells stably transfected with the human IGF-IR … (human)); assay: SPA competition vs [125I-Tyr31]-human IGF-1, membrane hIGF-1R, 0.1% HSA
T1 construct: whole, on cells; Receptor in purified plasma membranes, not on intact cells; also called hIGF1R; insulin-like growth factor 1 receptor
Experimental: The relative binding affinity for either of the membrane-associated human IR-A, IR-B or IGF-1R is determined by competition binding in a SPA setup. IR assays are performed in duplicate in 96-well OptiPlates (Perkin-Elmer Life Sciences). […] Assays are terminated by centrifugation of the plate at 2000 rpm for 2 minutes and bound radioactivity quantified by counting on a TopCount NXT (Perkin-Elmer Life Sciences).
IGF-1R assays are conducted essentially as for the IR binding assays except that membrane-associated IGF-1R and 50 pM [¹²5-Tyr31]-human IGF-1 were employed.

[2] = molecular target: T2, solubilised human IR-A (semipurified by wheat germ agglutinin chromatography from baby hamster kidney (BHK) … (human)); assay: SPA competition vs [125I-A14Y]-human insulin, solubilised hIR-A, 1.5% HSA
T2 construct: mature; Detergent-solubilised holoreceptor captured by anti-IR mouse antibody 83-7 on SPA beads; the precursor is processed into alpha and beta chains; also called hIRA; human insulin receptor (IR), A isoform

[3] = molecular target: T2, solubilised human IR-A (semipurified by …); assay: SPA competition vs [125I-A14Y]-human insulin, solubilised hIR-A, 0% HSA

Row | relative binding affinity (% rel to HI) [1] | relative binding affinity (% rel to HI) [2] | relative binding affinity (% rel to HI) [3] | Binder
1 | 7.1 % rel to HI | 113 % rel to HI |  | A22K(N(eps)tetradecanedioyl-4xgGlu), B3E, B26E, B27E, B28R, desB29, desB30 human insulin (ligand, Lys A22 acylated on N(eps) with tetradecanedioyl-4xgGlu, Two-chain acylated insulin analogue; also called Ex. No. 18) chain 1: not shown chain 2: FVEQHLCGSHLVEALYLVCGERGFFEER
2 | 65.1 % rel to HI | 174 % rel to HI | 232 % rel to HI | A22K(N(eps)tetradecanedioyl-4xgGlu), B3E, B26E, B27P, B28R, desB29, desB30 human insulin (ligand, Lys A22 acylated on N(eps) with tetradecanedioyl-4xgGlu, Two-chain acylated insulin analogue; also called Ex. No. 13) chain 1: not shown chain 2: FVEQHLCGSHLVEALYLVCGERGFFEPR
3 | 35.2 % rel to HI | 60.5 % rel to HI | 118 % rel to HI | A22K(N(eps)tetradecanedioyl-4xgGlu), B3E, B27E, B28R, desB29, desB30 human insulin (ligand, Lys A22 acylated on N(eps) with tetradecanedioyl-4xgGlu, Two-chain acylated insulin analogue; also called Ex. No. 14) chain 1: not shown chain 2: FVEQHLCGSHLVEALYLVCGERGFFYER
4 | 44.1 % rel to HI | 75 % rel to HI | 90.9 % rel to HI | A22K(N(eps)tetradecanedioyl-4xgGlu), B3E, B27E, B28E, B29R, desB30 human insulin (ligand, Lys A22 acylated on N(eps) with tetradecanedioyl-4xgGlu, also called Ex. No. 3) chain 1: not shown chain 2: FVEQHLCGSHLVEALYLVCGERGFFYEER
5 | 43.5 % rel to HI | 85.3 % rel to HI | 123 % rel to HI | A22K(N(eps)tetradecanedioyl-4xgGlu), B3E, B28E, B29P, B30R human insulin (ligand, Lys A22 acylated on N(eps) with tetradecanedioyl-4xgGlu, Two-chain acylated insulin analogue; also called Ex. No. 20) chain 1: not shown chain 2: FVEQHLCGSHLVEALYLVCGERGFFYTEPR
6 | 7.7 % rel to HI | 74 % rel to HI | 133 % rel to HI | A22K(N(eps)tetradecanedioyl-4xgGlu), B3E, B26E, B28E, B29P, B30R human insulin (ligand, Lys A22 acylated on N(eps) with tetradecanedioyl-4xgGlu, Two-chain acylated insulin analogue; also called Ex. No. 21) chain 1: not shown chain 2: FVEQHLCGSHLVEALYLVCGERGFFETEPR
7 | 35.7 % rel to HI | 89.2 % rel to HI | 115 % rel to HI | A22K(N(eps)tetradecanedioyl-4xgGlu), B3E, B27E, B28E, B29P, B30R human insulin (ligand, Lys A22 acylated on N(eps) with tetradecanedioyl-4xgGlu, Two-chain acylated insulin analogue; also called Ex. No. 22) chain 1: not shown chain 2: FVEQHLCGSHLVEALYLVCGERGFFYEEPR
8 | 66.3 % rel to HI | 71.5 % rel to HI | 108 % rel to HI | A22K(N(eps)tetradecanedioyl-gGlu-2xOEG), B3E, B27E, B28E, B29R, desB30 human insulin (ligand, Lys A22 acylated on N(eps) with tetradecanedioyl-gGlu-2xOEG, Two-chain acylated insulin analogue; also called Ex. No. 1) chain 1: not shown chain 2: FVEQHLCGSHLVEALYLVCGERGFFYEER
9 | 32.7 % rel to HI | 16.1 % rel to HI |  | A22K(N(eps)hexadecanedioyl-4xgGlu), B3E, B28D, B29R, desB30 human insulin (ligand, Lys A22 acylated on N(eps) with hexadecanedioyl-4xgGlu, also called Ex. No. 37) chain 1: not shown chain 2: FVEQHLCGSHLVEALYLVCGERGFFYTDR
10 | 55.7 % rel to HI | 57.4 % rel to HI | 100 % rel to HI | A22K(N(eps)tetradecanedioyl-4xgGlu), B3E, B27E, B29R, desB30 human insulin (ligand, Lys A22 acylated on N(eps) with tetradecanedioyl-4xgGlu, Two-chain acylated insulin analogue; also called Ex. No. 6) chain 1: not shown chain 2: FVEQHLCGSHLVEALYLVCGERGFFYEPR
11 | 170 % rel to HI | 86 % rel to HI | 162 % rel to HI | A22K(N(eps)tetradecanedioyl-gGlu-2xOEG), B3E, B27P, B28E, B29R, desB30 human insulin (ligand, Lys A22 acylated on N(eps) with tetradecanedioyl-gGlu-2xOEG, Two-chain acylated insulin analogue; also called Ex. No. 5) chain 1: not shown chain 2: FVEQHLCGSHLVEALYLVCGERGFFYPER
12 |  | 16.1 % rel to HI | 104 % rel to HI | A22K(N(eps)hexadecanedioyl-gGlu-2xOEG), B3E, B26E, B29R, desB30 human insulin (ligand, Lys A22 acylated on N(eps) with hexadecanedioyl-gGlu-2xOEG, Two-chain acylated insulin analogue; also called Ex. No. 42) chain 1: not shown chain 2: FVEQHLCGSHLVEALYLVCGERGFFETPR
13 | 99.4 % rel to HI | 14.3 % rel to HI | 157 % rel to HI | A22K(N(eps)hexadecanedioyl-gGlu-2xOEG), B3E, B27P, B28E, B29R, desB30 human insulin (ligand, Lys A22 acylated on N(eps) with hexadecanedioyl-gGlu-2xOEG, Two-chain acylated insulin analogue; also called Ex. No. 29) chain 1: not shown chain 2: FVEQHLCGSHLVEALYLVCGERGFFYPER
14 | 55.3 % rel to HI | 9.9 % rel to HI | 158 % rel to HI | A22K(N(eps)Hexadecanedioyl-gGlu-2xOEG), B3E, B27E, B29R, desB30 human insulin (ligand, Lys A22 acylated on N(eps) with hexadecanedioyl-gGlu-2xOEG, Two-chain acylated insulin analogue; also called Ex. No. 25) chain 1: not shown chain 2: FVEQHLCGSHLVEALYLVCGERGFFYEPR
15 | 13.6 % rel to HI | 101 % rel to HI | 119 % rel to HI | A22K(N(eps)tetradecanedioyl-4xgGlu), B3E, B26E, B28E, B29R, desB30 human insulin (ligand, Lys A22 acylated on N(eps) with tetradecanedioyl-4xgGlu, Two-chain acylated insulin analogue; also called Ex. No. 11) chain 1: not shown chain 2: FVEQHLCGSHLVEALYLVCGERGFFETER
16 |  | 19.6 % rel to HI | 141 % rel to HI | A22K(N(eps)hexadecanedioyl-4xgGlu), B3E, B26E, B29R, desB30 human insulin (ligand, Lys A22 acylated on N(eps) with hexadecanedioyl-4xgGlu, Two-chain acylated insulin analogue; also called Ex. No. 41) chain 1: not shown chain 2: FVEQHLCGSHLVEALYLVCGERGFFETPR
17 | 124 % rel to HI | 67.6 % rel to HI | 100 % rel to HI | A22K(N(eps)tetradecanedioyl-gGlu-2xOEG), B3E, B28D, B29R, desB30 human insulin (ligand, Lys A22 acylated on N(eps) with tetradecanedioyl-gGlu-2xOEG, Two-chain acylated insulin analogue; also called Ex. No. 7) chain 1: not shown chain 2: FVEQHLCGSHLVEALYLVCGERGFFYTDR
18 | 64.1 % rel to HI | 10.8 % rel to HI | 168 % rel to HI | A22K(N(eps)hexadecanedioyl-4xgGlu), B3E, B27P, B28E, B29R, desB30 human insulin (ligand, Lys A22 acylated on N(eps) with hexadecanedioyl-4xgGlu, Two-chain acylated insulin analogue; also called Ex. No. 30) chain 1: not shown chain 2: FVEQHLCGSHLVEALYLVCGERGFFYPER
19 | 85.1 % rel to HI | 13.5 % rel to HI | 102 % rel to HI | A22K(N(eps)hexadecanedioyl-gGlu-2xOEG), B3E, B28D, B29R, desB30 human insulin (ligand, Lys A22 acylated on N(eps) with hexadecanedioyl-gGlu-2xOEG, Two-chain acylated insulin analogue; also called Ex. No. 33) chain 1: not shown chain 2: FVEQHLCGSHLVEALYLVCGERGFFYTDR
20 | 13 % rel to HI | 121 % rel to HI | 180 % rel to HI | A22K(N(eps)tetradecanedioyl-4xgGlu), B3E, B26E, B29R, desB30 human insulin (ligand, Lys A22 acylated on N(eps) with tetradecanedioyl-4xgGlu, Two-chain acylated insulin analogue; also called Ex. No. 12) chain 1: not shown chain 2: FVEQHLCGSHLVEALYLVCGERGFFETPR
21 | 9.82 % rel to HI | 152 % rel to HI | 170 % rel to HI | A22K(N(eps)tetradecanedioyl-4xgGlu), B3Q, B26E, B28E, B29R, desB30 human insulin (ligand, Lys A22 acylated on N(eps) with tetradecanedioyl-4xgGlu, also called Ex. No. 40) chain 1: not shown chain 2: FVQQHLCGSHLVEALYLVCGERGFFETER
22 | 102 % rel to HI | 77.6 % rel to HI | 155 % rel to HI | A22K(N(eps)tetradecanedioyl-4xgGlu), B3E, B27P, B28E, B29R, desB30 human insulin (ligand, Lys A22 acylated on N(eps) with tetradecanedioyl-4xgGlu, Two-chain acylated insulin analogue; also called Ex. No. 38) chain 1: not shown chain 2: FVEQHLCGSHLVEALYLVCGERGFFYPER
23 | 20.1 % rel to HI | 10.7 % rel to HI | 96.7 % rel to HI | A22K(N(eps)hexadecanedioyl-4xgGlu), B3E, B27E, B29R, desB30 human insulin (ligand, Lys A22 acylated on N(eps) with hexadecanedioyl-4xgGlu, Two-chain acylated insulin analogue; also called Ex. No. 32) chain 1: not shown chain 2: FVEQHLCGSHLVEALYLVCGERGFFYEPR
24 | 18.4 % rel to HI | 105 % rel to HI | 136 % rel to HI | A22K(N(eps)tetradecanedioyl-4xgGlu), B3Q, B26E, B29R, desB30 human insulin (ligand, Lys A22 acylated on N(eps) with tetradecanedioyl-4xgGlu, also called Ex. No. 39) chain 1: not shown chain 2: FVQQHLCGSHLVEALYLVCGERGFFETPR
25 | 77.3 % rel to HI | 77.2 % rel to HI | 111 % rel to HI | A22K(N(eps)tetradecanedioyl-4xgGlu), B3E, B28D, B29R, desB30 human insulin (ligand, Lys A22 acylated on N(eps) with tetradecanedioyl-4xgGlu, Two-chain acylated insulin analogue; also called Ex. No. 10) chain 1: not shown chain 2: FVEQHLCGSHLVEALYLVCGERGFFYTDR
26 | 5.4 % rel to HI |  | 120 % rel to HI | A22K(N(eps)tetradecanedioyl-4xgGlu), B3E, B26E, B27E, B28E, B29R, desB30 human insulin (ligand, Lys A22 acylated on N(eps) with tetradecanedioyl-4xgGlu, Two-chain acylated insulin analogue; also called Ex. No. 36) chain 1: not shown chain 2: FVEQHLCGSHLVEALYLVCGERGFFEEER
27 | 55 % rel to HI | 9.9 % rel to HI | 138 % rel to HI | A22K(N(eps)hexadecanedioyl-gGlu-2xOEG), B3E, B27E, B28E, B29R, desB30 human insulin (ligand, Lys A22 acylated on N(eps) with hexadecanedioyl-gGlu-2xOEG, Two-chain acylated insulin analogue; also called Ex. No. 31) chain 1: not shown chain 2: FVEQHLCGSHLVEALYLVCGERGFFYEER
28 | 26 % rel to HI | 10.6 % rel to HI | 103 % rel to HI | A22K(N(eps)hexadecanedioyl-4xgGlu), B3E, B27E, B28E, B29R, desB30 human insulin (ligand, Lys A22 acylated on N(eps) with hexadecanedioyl-4xgGlu, Two-chain acylated insulin analogue; also called Ex. No. 28) chain 1: not shown chain 2: FVEQHLCGSHLVEALYLVCGERGFFYEER
